According to PubChem BioAssay (NCATS):
This list was built around the results that the source calls inconclusive (neither active nor inactive); the mix of calls is not that of the screen. Potencies of inconclusive entries are left out as doubtful fits. Active and inactive are the calls of the source. Calls come from the whole dose curve; as a rule, active = well fitted curve in the direction sought with a large enough effect; inconclusive = small, poorly fitted or top-dose-only effect, or another doubt; inactive = no such curve, though single readings can be large; an effect the other way counts as inactive or inconclusive.

Assays:
[1] = qHTS Screen of the MIPE 4.0 Collection Against Ewings Sarcoma (TC71) (AID 1259253); note: nearly all actives have a fitted effect of over 40% in size
How it was run: (§1)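 Dose series incubated 48 h with cells in RPMI plus 5% FBS, glutamine and penicillin/streptomycin; cell viability then quantified via CellTiter-Glo.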

[2] = qHTS Screen of the MIPE 4.0 Collection Against Ewings Sarcoma (EW8) (AID 1259255); note: nearly all actives have a fitted effect of over 35% in size
How it was run: as §1

[3] = qHTS Screen of the MIPE 4.0 Collection Against Ewings Sarcoma (RDES) (AID 1259252); note: nearly all actives have a fitted effect of over 35% in size
How it was run: as §1

[4] = qHTS Assay for Identifying Gametocytocidal Compounds (AID 743244); details: P. falciparum 3D7 stage III-V gametocytes, alamarBlue, 72 h; max response: hits give low values
How it was run: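 Late gametocytes (III–V), P. falciparum 3D7; 72 h drug, then 24 h alamarBlue; resazurin reduction read by fluorescence.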
Potency is the fitted concentration of half-maximal effect; tags give direction and shape of the fitted curve.

In the case of `CC[C@]1(O)C[C@@H]2CN(CCc3c([nH]c4ccccc34)[C@@](C(=O)OC)(c3cc4c(cc3OC)N(C=O)[C@@H]3C45CCN4CC=C[C@](CC)([C@H]45)[C@@H](OC(C)=O)[C@]3(O)C(=O)OC)C2)C1` (some centres not stated), the Potency [1] is reported as active: 20.9 µM and the Potency [2] is reported as inconclusive [inhibitor, partial curve].
With `Cc1ccnc(NS(=O)(=O)c2ccc(NC(=O)Nc3ccc(S(=O)(=O)Nc4nccc(C)n4)cc3)cc2)n1` the Potency [3] was inconclusive [inhibitor, partial curve, poor fit], the Potency [1] was inconclusive [inhibitor, partial curve] and the Potency [2] was inconclusive [inhibitor, partial curve].
For `O=Nc1ccc2oc(=O)ccc2c1`, the Potency [4] was active: 1.78 µM.
In the case of `CCC[C@@H]1C[C@@H](C(=O)N[C@@H]([C@H]2O[C@H](SC)[C@H](O)[C@@H](O)[C@H]2O)[C@@H](C)O)N(C)C1`, the Potency [1] is reported as inconclusive [inhibitor, partial curve, poor fit].
In the case of `Cc1c(N)c(=O)n(-c2ccccc2)n1C`, the Potency [4] is reported as inconclusive [inhibitor, single point].
With `O=C1CCCC2=C1C(c1[nH]ncc1Cl)N=C(Nc1nc3ccccc3o1)N2` (configuration not stated) the Potency [2] was inconclusive [inhibitor, single point].
In the case of `CCOc1ccc(Cc2cc([C@@H]3O[C@H](CO)[C@@H](O)[C@H](O)[C@@H]3O)ccc2Cl)cc1`, the Potency [3] is reported as inconclusive [inhibitor, single point], the Potency [1] is reported as inconclusive [inhibitor, single point] and the Potency [2] is reported as “inactive”.
